Laboratory results from PubChem BioAssay AID1458 (National Center for Advancing Translational Sciences (NCATS), 2008).
Screen size: about 210,000 compounds; about 5,900 (2.8%) were called active. This list was built around the results that the source calls inconclusive (neither active nor inactive); the mix of calls is not that of the screen. The call rests on the fitted dose curve; in most records, active means well fitted activation curve with a large enough effect; inconclusive means small, poorly fitted or top-dose-only effect; inactive means no such curve, though single readings can be large or run the other way. A potency beside an inconclusive call is a rough fit, not a confirmed value.

test: qHTS Assay for Enhancers of SMN2 Splice Variant Expression; conditions: HEK293 SMN2-luciferase splicing reporter, luminescence, 30-36 h; series mostly up to 46.1 µM; further: nearly all actives have a fitted effect of over 55% in size
In short: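 qHTS luciferase splicing reporter: luminescence rises when SMN2 exon 7 is included in transfected HEK293 cells. Compound exposure lasted 30-36 h at 37C, with 4.5 mM final sodium butyrate as control, followed by a ONE-Glo read.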
Potency means the concentration at half of the fitted maximal effect; tags describe the fitted curve by direction and shape.

SMILES	Potency
CCc1ccc(C(=O)CN2C(=O)C(C)N(c3ccc(C)cc3)C2=O)cc1 (stereo not given)	inactive
CCC(=O)c1ccc(OCc2ccc(C(=O)OC)cc2)cc1	inconclusive: 0.501 µM [activator, full curve]
COc1ccc(S(=O)(=O)NC2CCCCC2)cc1C	inconclusive: 7.94 µM [activator, partial curve, poor fit]
O=C(Cc1cccs1)N/N=C/C(Cl)=C/c1ccccc1	inconclusive: 12.6 µM [activator, partial curve, poor fit]
CCN(CC)c1ccc(C(=S)NC2CCCCC2)cc1	inconclusive: 17.8 µM [activator, single point]
COC(=O)c1cn(C)c2ccc(S(=O)(=O)N3CCCC3)cc2c1=O	inconclusive: 5.01 µM [activator, single point]
CCOC(=O)N1CCC2(CC1)C(C(=O)C13CC4CC(CC(C4)C1)C3)C2(C#N)C#N (stereo not given)	inconclusive: 0.02 µM [activator, full curve]
CCSc1ncc(C)cc1[N+](=O)[O-]	inconclusive: 0.794 µM [activator, full curve, poor fit]
CCOC(=O)N1CCN(C(=O)c2ccc(NS(C)(=O)=O)cc2)CC1	inactive
Cn1nc(C(=O)Nc2ccc(S(=O)(=O)N3CCCCC3)cc2)c2ccccc2c1=O	inconclusive: 10 µM [activator, partial curve]
Cc1ccc(S(=O)(=O)N2CC=C(c3c(C)n(CC(=O)N4CCCC4)c4ccccc34)CC2)cc1C	inactive
C#CCOc1c(Br)cc(/C=N/O)cc1OCC	inconclusive: 5.62 µM [activator, single point]
CC1CCN(C(=O)CN(C)S(=O)(=O)c2cccc3nsnc23)CC1	inconclusive: 35.5 µM [activator, single point]
CCOC(=O)CC1ON(C)C(=O)N1c1ccc(Cl)cc1Cl (stereo not given)	inconclusive: 0.0112 µM [activator, full curve, poor fit]
CS(=O)(=O)N(CC(=O)NC1CCCC1)c1cccc(F)c1	inconclusive: 0.0141 µM [activator, full curve, poor fit]
Cc1cc(C(=O)NCCC2=CCCCC2)no1	inactive
O=C(CSc1ncn[nH]1)Nc1ccccc1-c1ccccc1	inactive
CC(=O)c1cc2c(cc1NC(=O)C1CC=CCC1C(=O)O)OCO2 (stereo not given)	inconclusive: 0.0032 µM [activator, full curve]
Cc1ccc(NC(=O)c2cc(C(=O)c3cc(Cl)ccc3O)cn(-c3ccc(C)cc3)c2=O)cc1	inactive
CC(=O)c1c(N2CCN(C(=O)c3ccco3)CC2)nc(=S)n(-c2ccccc2)c1C	inconclusive: 3.55 µM [activator, partial curve, poor fit]
